Laboratory results: PubChem BioAssay AID686979 (National Center for Advancing Translational Sciences (NCATS), 2013)
The whole screen tested about 420,000 compounds, of which about 50,000 (12%) were called active. This list was built around the results that the source calls inconclusive (neither active nor inactive); the mix of calls is not that of the screen. Calls come from the whole dose curve; as a rule, active = well fitted inhibition curve with a large enough effect; inconclusive = small, poorly fitted or top-dose-only effect; inactive = flat fitted curve, though single readings scatter. Potencies of inconclusive entries are left out as doubtful fits.

Assay: qHTS for Inhibitors of human tyrosyl-DNA phosphodiesterase 1 (TDP1): qHTS in cells in presence of CPT; note: nearly all actives have a fitted effect of over 55% in size
Conditions: chicken DT40 Tdp1-/-;hTDP1 cells + 20 nM CPT, ATP luminescence, 48 h; activity change, negative = growth inhibition: at 46.2 µM (top of the series) unless noted
Outline: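 Chicken DT40 Tdp1-/- cells stably complemented with human TDP1 were seeded at 400 cells/well in medium containing 20 nM camptothecin, exposed to pin-transferred compounds, and grown at 37 °C for at least 48 hr. Viability was read as ATP luminescence.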
% is set by controls: 0 for no effect and ±100 for the full control effect; potency is the fitted concentration of half-maximal effect; tags give direction and shape of the fitted curve.

| Structure (SMILES) | Potency | activity change, negative = growth inhibition |
| --- | --- | --- |
| CC(Oc1ccc(Cl)cc1Cl)c1nc(-c2ccccn2)no1 (centres undefined) | inconclusive [inhibitor, single point] | – |
| O=C(CN1C(=O)c2ccccc2C1=O)Nc1ccc2c(c1)OCO2 | inactive | – |
| CCCCN(C(=O)c1cccc(C)c1)c1c(N)n(CCC)c(=O)[nH]c1=O | inconclusive [inhibitor, full curve, poor fit] | – |
| COc1ccc(/C=C2\NC(=O)[C@@H]3Cc4ccccc4CN3C2=O)cc1 | – | inactive: -14.1% [at 9.04 µM] |
| CCOC(=O)C1CCN(C(=O)COC(=O)c2ccccc2C(=O)c2ccc(Cl)cc2)CC1 | inactive | – |
| CC(Cc1ccccc1)NC(=O)c1cc([N+](=O)[O-])ccc1Cl (centres undefined) | inactive | – |
| COc1ccc(Cc2nnc(SCc3ccc([N+](=O)[O-])cc3)o2)cc1 | inconclusive [inhibitor, partial curve] | – |
| N#Cc1ccc(-c2nc3cc(Cl)ccc3c(=O)n2O)cc1 | inconclusive [inhibitor, single point] | – |
| CC(C)(C)OC(=O)NCc1ccc(NC(=O)c2nc[nH]c2C(=O)N[C@@H](Cc2ccccc2)C(=O)OCc2ccccc2)cc1 | inconclusive [inhibitor, single point] | – |
| C=CCNC(=O)N1CCc2[nH]c3ccc(F)cc3c2C1 | inactive | – |
| O=[N+]([O-])c1cc2c(cc1/C=N/n1cnnc1)OCO2 | inactive | – |
| O=S(=O)(c1ccccc1)N1c2cc(Cl)ccc2Oc2nc3ccccc3nc21 | – | inconclusive: -31.9% [inhibitor] |
| COc1cc(/C=C/C(=O)C2C(=O)C=C(C)OC2=O)cc(OC)c1O (centres undefined) | inconclusive [inhibitor, single point] | – |
| Cn1c(=O)c2c(n3cnnc13)-c1ccccc1CC21CCCC1 | inconclusive [inhibitor, single point] | – |
| COc1ccc(-c2nnc(SCC(=O)NC3CCCCC3)o2)cc1OC | active: 20.6 µM | – |
| C=CCNc1ncnc2c1ncn2[C@H]1CN(Cc2cccc3ccccc23)C[C@@H](CO)O1 | inconclusive [inhibitor, single point] | – |
| CCN1C(=O)/C(=C\c2ccncc2)SC1=Nc1ccc(C)c(C)c1 | inconclusive [inhibitor, single point] | – |
| COc1ccccc1NC(=O)CN1C(=O)C(c2ccc(F)cc2)=NC12CCCCC2 | inconclusive [inhibitor, single point] | – |
| CC1(c2ccccc2)NC(=O)N(CC(=O)Nc2ccc(N3CCOCC3)cc2N2CCOCC2)C1=O (centres undefined) | – | inconclusive: -3.45% [inhibitor] |
| CC(=O)N1CCC(N(C(=O)Nc2ccc(C)c(C)c2)C2CCCC2)CC1 | inactive | – |
| CCc1ccc2oc(-c3cc(NC(=O)c4cc(OC)c(OC)c(OC)c4)ccc3O)nc2c1 | inconclusive [inhibitor, single point] | – |
| Cc1ccc2nc(SCC(=O)Nc3ccc(Br)cc3)nc(=O)n2c1 | inconclusive [inhibitor, single point] | – |

| Structure (SMILES) | Potency | activity change, negative = growth inhibition |
| --- | --- | --- |
| Cc1ccc(C)c(NC(=S)NCCc2c[nH]c3ccccc23)c1 | inconclusive [inhibitor, single point] | – |
| COc1cccc(C(=O)/C(C#N)=N/Nc2cccc(-c3ccnc(C)n3)c2)c1 | inconclusive [inhibitor, single point] | – |
| C=CCN1CCN(C(=O)c2cc3c(s2)CCC(CC)C3)CC1 (centres undefined) | inconclusive [inhibitor, single point] | – |
| N#Cc1ccc(/C=C/C(=O)c2cccnc2)cc1 | active: 10.3 µM | – |
| COc1cccc(NC(=O)C2CC(=O)N=C(N)S2)c1 (centres undefined) | inactive | – |
| O=C(Nc1ccc(F)c(Cl)c1)c1cc(C2CCCN(S(=O)(=O)c3ccccc3)C2)on1 (centres undefined) | inconclusive [inhibitor, single point] | – |
| CC(=O)c1ccc(NS(=O)(=O)c2cc3c(cc2C)N(C)CCO3)cc1 | active: 10.3 µM | – |
| COc1cccc(N2CCN(C(=O)c3cnn(-c4ccccc4Cl)c3C3CCN(C(=O)OC(C)(C)C)CC3)CC2)c1 | inconclusive [inhibitor, single point] | – |
| COC(=O)c1sc2cc(C(F)(F)F)cnc2c1-c1ccccn1 | inactive | – |
| Cc1ccc(-c2cc(O)cc3sc(=O)oc23)cc1C | inconclusive [inhibitor, single point] | – |
| CCOc1ccccc1C(=O)N1CCC(n2nnc3cc(C)ccc32)CC1 | inconclusive [inhibitor, single point] | – |
| CCCS(=O)(=O)c1c(S(=O)(=O)CCC)c2c(N)cccn2c1C(=O)OC | inconclusive [inhibitor, single point] | – |
| COc1ccc([C@@H]2[C@H]3CN(C(C)=O)CC=C3C(C#N)=C(N)C2(C#N)C#N)c2ccccc12 | inconclusive [inhibitor, partial curve] | – |
| COc1cccc(CNc2ccc3[nH]c(=O)[nH]c3c2)c1OCc1ccccc1F | inconclusive [inhibitor, single point] | – |
| COc1cccc(NC(=O)C2CCC(CNS(=O)(=O)c3csc(C(N)=O)c3)CC2)c1 (centres undefined) | inconclusive [inhibitor, single point] | – |
| CN(C)CCn1c2c(c(SCC(=O)N3CCc4ccccc43)nc1=O)CCCC2 | inactive | – |
| Cc1nn2c(COc3ccc(NC(=O)C(C)C)cc3)nnc2c2ccccc12 | inconclusive [inhibitor, partial curve] | – |
| CC(=O)Nc1ccc(S(=O)(=O)Nc2nnc(CC(C)(C)C)s2)cc1 | inactive | – |
| COc1cc(-c2[nH]ncc2CN2CCc3sccc3C2)cc(OC)c1OC | active: 14.6 µM | – |
| CCn1c(Cc2ccccc2)n[nH]c1=S | inactive | – |
| COc1ccc(OC)c(-n2c(CNC3CCN(Cc4ccccc4)CC3)nc3ccccc3c2=O)c1 | inconclusive [inhibitor, single point] | – |
| CCOc1ccc(CN2CCN(Cc3cc4c(cc3Cl)OCO4)CC2CCO)cc1 (centres undefined) | inconclusive [inhibitor, single point] | – |
